Laboratory results taken from PMC6325239 (Nature Communications, 2019).

B1: GST-Syb2 ([…]) (domain or fragment)
chain: not shown
notes: synaptobrevin-2 (Syb2), rat, […]; also called isolated Syb2; source: E. coli BL21 DE3, pGEX-KG, purified (eluted with glutathione)
B2: Syb2 cytoplasmic domain ([…]) (domain or fragment)
chain: not shown
notes: synaptobrevin-2 (Syb2), rat, cytoplasmic domain […]; also called synaptobrevin-2; source: E. coli BL21 DE3, pGEX-KG, purified

Assays:
[1] = molecular target: T1, co-expressed Munc18-1/Syx1 (residues 1–261) complex (rat, UniProt P61765; P32851); experiment: pull-down; 2 µM GST-Syb2 or mutants and 3 µM Munc18-1/Syx1 (1–261) complex, with 3 µM MUN, glutathione Sepharose 4B, 4 °C, 3 h; immunoblot for Munc18-1; settings: both partners purified
T1 construct: Munc18-1, rat; syntaxin-1 (Syx1), rat, residues 1-261; also called Munc18-1/Syx1 complex; source: E. coli BL21 DE3, co-expressed from pETDuet-1, purified

[2] = molecular target: T2, Syx1 (residues 1–261), co-expressed with Munc18-1 (rat, UniProt P32851); experiment: native gel or EMSA; native PAGE with immunoblotting: 2 µM Munc18-1/Syx1 (1–261) complex with 10 µM SN25, 10 µM Syb2 (29–96) and 30 µM MUN, 30 °C, 1 h; SNARE complex forms only with all components; settings: both partners purified
T2 construct: syntaxin-1 (Syx1), rat, residues 1-261; also called syntaxin-1; source: E. coli BL21 DE3, co-expressed with Munc18-1 from pETDuet-1, purified

Binder	binding result [1]	binding result [2]
B1	binds	
B2		binds
